# In PubChem BioAssay AID1159614 (National Center for Advancing Translational Sciences (NCATS), 2016):
# Out of some 45,000 compounds screened, about 65 (0.1%) were called active. Calls come from the whole dose curve; as a rule, active = well fitted activation curve with a large enough effect; inconclusive = small, poorly fitted or top-dose-only effect; inactive = no such curve, though single readings can be large or run the other way. This is one part of the list.
# Biological target: Galactocerebrosidase (Homo sapiens) (UniProt P54803)
# Assay: A Novel Cell-Based Assay to Identify Small Molecules for B -Galactocerebrosidase; note: 0% is about no effect; nearly all actives have a fitted effect of over 65% in size
# Details: 145M-Twi-hGALC-G270D cells (Twitcher mouse brain line with human GALC G270D), HMU-beta-Gal fluorescence, 48 h; series mostly up to 57.5 µM; activation: at the top concentration
# Procedure, shortened: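 Brain-derived Twitcher mouse 145M-Twi cells stably expressing human GALC-G270D or wild-type GALC, treated live, then residual GALC activity read by fluorescence of HMU-b-Gal substrate (0.1 mM final) in citrate-phosphate buffer pH 5.2 with sodium taurocholate. Signal increase indicates enhancement.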
# UniProt P54803, sequence (P54803 whole entry, looked up): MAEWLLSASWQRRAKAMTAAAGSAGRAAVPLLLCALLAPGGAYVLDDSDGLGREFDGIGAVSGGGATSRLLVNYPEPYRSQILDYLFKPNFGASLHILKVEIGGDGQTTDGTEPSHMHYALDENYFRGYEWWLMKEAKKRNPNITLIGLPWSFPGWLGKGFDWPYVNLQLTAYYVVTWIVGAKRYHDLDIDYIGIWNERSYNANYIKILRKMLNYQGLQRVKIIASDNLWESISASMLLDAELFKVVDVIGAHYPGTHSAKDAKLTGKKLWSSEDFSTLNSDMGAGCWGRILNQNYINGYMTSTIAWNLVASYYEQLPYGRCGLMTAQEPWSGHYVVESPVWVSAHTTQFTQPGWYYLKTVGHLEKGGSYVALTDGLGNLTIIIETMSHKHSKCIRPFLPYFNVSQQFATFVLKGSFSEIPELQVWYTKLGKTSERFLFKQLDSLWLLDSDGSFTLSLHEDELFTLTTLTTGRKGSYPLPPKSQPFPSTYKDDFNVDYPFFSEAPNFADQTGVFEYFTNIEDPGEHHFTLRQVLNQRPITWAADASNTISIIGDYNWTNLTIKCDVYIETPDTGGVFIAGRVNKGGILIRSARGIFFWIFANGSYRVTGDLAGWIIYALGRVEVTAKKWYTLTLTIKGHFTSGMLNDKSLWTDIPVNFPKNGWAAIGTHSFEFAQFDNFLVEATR
row,Structure (SMILES),activation
1,Cn1cc(-c2cc3n(n2)CCC(=O)N3CC(=O)NCc2ccccc2)c2ccccc21,inactive: -17.4%
2,O=c1cc(N2CCN(c3ccc(F)cc3)CC2)[nH]c(=O)n1-c1cccc(Br)c1,inactive: -4.41%
3,Cc1cccc(C(=O)NCc2cn3cccc(C)c3n2)c1,inactive: -10.3%
4,CC(C)c1ccc(Cc2cnc(NC(=O)c3ccc4c(c3)CC(c3ccccc3)OC4=O)s2)cc1 (centres undefined),inactive: -8.11%
5,CCOC(=O)C1CCCN(C(=O)Cn2nc(C)n3c(cc4c(OC)cccc43)c2=O)C1 (centres undefined),inactive: -14.5%
6,COc1cccc(CNC(=O)C2CCCN(S(=O)(=O)c3cn(C)cn3)C2)c1 (centres undefined),inactive: -6.47%
7,Cc1ccc(-n2c(=O)c3cccnc3n2CC(=O)Nc2ccccc2C(F)(F)F)cc1C,inactive: -20.3%
8,Cc1ccc(CNC(=O)C2CCN(S(=O)(=O)c3c(C)noc3/C=C/c3ccccc3F)CC2)o1,inactive: -12%
9,COc1ccc(S(=O)(=O)N(C(=O)c2ccncc2)c2ccc3oc(C)c(C(C)=O)c3c2)cc1,inactive: -23.5%
10,COc1ccc(-c2cn3c(n2)sc2cc(C(=O)NC4CCCCC4)ccc23)cc1,inactive: -17.2%
11,Cc1ccnc(NC(c2cc(C)ccc2O)c2ccc3cccnc3c2O)c1 (centres undefined),inactive: -5.19%
12,COc1ccccc1OC(C)C(=O)N1CCN(CCc2ccccn2)CC1 (centres undefined),inactive: -11.6%
13,CC[C@H](C)NC(=O)CCCc1nnc2n(CCC(C)C)c(=O)c3sccc3n12,inactive: -2.3%
14,Cc1ccc(C)c(NC(=O)C(NS(=O)(=O)c2ccc3c(c2)CCC(=O)N3)c2ccccc2)c1 (centres undefined),inactive: -18%
15,COC(=O)c1cc(Cl)ccc1NS(=O)(=O)C(F)(F)F,inactive: -10.5%
16,CCN(CC)c1ccc(C2C(C(N)=O)=C(C)Nc3nc(SCc4ccccc4)nn32)cc1 (centres undefined),inactive: -1.68%
17,O=c1c2ccccc2nc2sc(Nc3cccc(C(F)(F)F)c3)nn12,inactive: -13.9%
18,Cc1ccc(N2CC(NC(=O)Cc3ccc(F)cc3)CC2=O)cc1C (centres undefined),inactive: -16.8%
19,COc1ccccc1CNC(=O)c1cnn(-c2ccc(F)cc2F)c1C1CCN(C(=O)OC(C)(C)C)CC1,inactive: 1.52%
20,COc1ccc(-c2noc(CCC(=O)Nc3ccccc3Cl)n2)cc1OC,inactive: -5.87%
21,COCCN1CN=C(NS(=O)(=O)c2ccc(C)cc2)NC1,inactive: -15.2%
22,Cc1cccc(Cc2c(C)nc3nc(SCC(=O)NC4CCCCC4)nn3c2C)c1,inactive: -5.24%
23,Fc1ccc(-c2noc3ncnc(NCc4cccc(Cl)c4)c23)cc1,inactive: -7.61%
24,CSc1cccc(NS(=O)(=O)c2ccc3[nH]cc(C(=O)N4CCCCCC4)c(=O)c3c2)c1,inactive: -11.1%
25,CCOC(=O)c1nnc2c(-c3ccc(F)cc3)c(C)nn2c1N,inactive: -14.8%

row,Structure (SMILES),activation
1,COc1ccc(/C=C\c2onc(C)c2S(=O)(=O)N2CCC(C(=O)Nc3ccc(C)c(F)c3)CC2)cc1,inactive: -9.38%
2,COc1ccc(/C=C(\C#N)c2nc(-c3cc4ccccc4oc3=O)cs2)cc1OC,inactive: 11%
3,CC1CCN(S(=O)(=O)c2ccc3nc(N4CCN(c5ccccc5F)CC4)ccc3c2)CC1,inactive: -18.2%
4,COC(=O)c1cccnc1-n1c(=O)c2cccnc2n(CC(=O)Nc2cccc(C(F)(F)F)c2)c1=O,inactive: -22.9%
5,CCOc1cc(C2CC(=O)Nc3c2c(C)nn3-c2nc(C)cc(C)n2)ccc1O (centres undefined),inactive: -9.57%
6,Cc1ccc(-c2onc(C)c2C)cc1S(=O)(=O)NC1CCC(C)CC1 (centres undefined),inactive: -3.57%
7,COc1ccc2c(c1)Cc1sc(NC(=O)c3cccc(Cl)c3)nc1-2,inactive: -7.02%
8,CC(C)c1ccc(-c2noc(SCC(=O)N3CCCCC3)n2)cc1,inactive: -7.86%
9,CCOc1ccccc1CNC(=O)c1ccc(Cn2c(=O)c3cccn3c3cccnc32)cc1,inactive: -2.59%
10,CCCN(CCC)CCCNC(=O)c1nn(C)c2c1CS(=O)(=O)c1ccccc1-2,inactive: -10.8%
11,CC(=O)Nc1nonc1-c1nnc(SCc2cccc(Br)c2)n1C,inactive: -21.5%
12,COc1cc(C)ccc1OCCSc1nnc(-c2cccs2)o1,inactive: -4.5%
13,O=C(/C=C/c1ccccc1)Nc1cc(-c2nc3ccccc3o2)ccc1Cl,inactive: -0.398%
14,FC(F)(F)c1cccc(N2CCN(Cc3nnc(-c4ccccc4)o3)CC2)c1,inactive: -7.7%
15,N#Cc1ccc(NC(=O)COCc2cc(-c3ccc(F)cc3)on2)cc1,inactive: -11.1%
16,COC(=O)c1cc2oc(C)cc2n1Cc1ccc(Cl)cc1,inactive: -22.7%
17,COc1cccc(NC(=O)CN2C(=O)C3(SCC(=O)N3c3cc(C)cc(C)c3)c3ccccc32)c1 (centres undefined),inactive: -19.3%
18,Cc1ccc(NC(=O)C2CCN(S(=O)(=O)c3c(C)noc3C)CC2)cc1C,inactive: -15.4%
19,Cc1ccc(CN2C(=O)N(c3ccc(C)c(Cl)c3)S(=O)(=O)c3ccccc32)cc1,inactive: -22.4%
20,CCOC(=O)CSc1nc2ccccc2n2c(C)nnc12,inactive: -8.51%
21,O=C(CSc1nccn1C1CCCC1)Nc1ccccc1,inactive: -8.04%
22,CCN(CC)C(=O)C1CCN(C(=O)c2cnn(-c3ccccc3)c2-n2cccc2)CC1,inactive: -11.3%
23,CCOc1ccc(CNC(=O)c2cnc(SC)nc2C)cc1,inactive: -15.4%
24,COC(=O)c1c(-c2cccs2)csc1NC(=O)COc1ccc(C(C)C)cc1,inactive: -6.35%
25,CCOC(=O)C1CCN(C(=O)c2nn(-c3ccc(C)cc3)c(=O)n(C)c2=O)CC1,inactive: -16.6%

row,Structure (SMILES),activation
1,CCc1ccc(CNC(=O)c2ccc(CS(=O)(=O)Cc3ccccc3C)o2)cc1,inactive: -20.6%
2,O=C(Nc1ccc(Cl)cc1C(F)(F)F)c1cc(S(=O)(=O)NCc2ccccc2)ccc1F,inactive: -8.37%
3,Cc1ccccc1OCC(=O)Nc1nnc(S(=O)(=O)N(C)c2ccccc2)s1,inactive: -18.6%
4,COc1ccccc1N1CCN(C(=O)c2cc3c(=O)n(Cc4cccnc4)ccc3nc2C)CC1,inactive: -10.8%
5,O=C(Cn1c(=O)n(-c2ccccc2)c(=O)c2c3c(sc21)CCCC3)Nc1ccc(F)cc1,inactive: -8.52%
6,CCC1Oc2ccccc2N(CC(=O)NCc2ccc(C)cc2)C1=O (centres undefined),inactive: -6.91%
7,Cc1ccc(Cl)cc1N1CCN(C(=O)c2cn(C)c3ccc(S(=O)(=O)N4CCCC4)cc3c2=O)CC1,inactive: 27.5%
8,CCOc1ccc(-n2ccnc2SCC(=O)Nc2ccc(OC)cc2OC)cc1,inactive: -16.5%
9,CC1=C(C(=O)OC2CCCC2)C(c2cccc(Cl)c2Cl)CC(=O)N1 (centres undefined),inactive: -13.3%
10,CCn1c2c(c(=O)n3ncc(C(=O)Nc4ccc(F)c(Cl)c4)c13)CN(Cc1ccc(OC)cc1)CC2,inactive: -28.6%
11,CC(=O)c1ccc(NC(=O)COc2ccccc2-c2nc(C)no2)cc1,inactive: 2.13%
12,CCOc1ccc(C(=O)OCc2cc(=O)n3nc(C(C)C)sc3n2)cc1,inactive: -14.7%
13,CC(C)CC(=O)N(Cc1ccccc1)S(=O)(=O)c1ccc2c(c1)oc(=O)n2C,inactive: -9.64%
14,CN(C)[C@@H]1C(=O)C(C(=O)NCN2CCCC2)=C(O)[C@@]2(O)C(=O)C3=C(O)c4c(O)cccc4[C@@](C)(O)C3C[C@@H]12 (some centres undefined),inactive: -6.78%
15,Oc1cccc2[nH]ccc12,inactive: -8.26%
16,CCN1CCN(c2ncc3c(n2)CCN(Cc2ccc(C)s2)C3)CC1,inactive: -12.5%
17,COc1ccc(Br)cc1CNC(=O)c1cc2c(=O)n(C)c3ccccc3c2s1,inactive: -15%
18,Cc1cccc(CCNC(=O)c2nc(-c3ccc(Cl)cc3)n3c2CCCCC3)c1,inactive: -5.01%
19,Fc1ccc(C(c2ccc(F)cc2)N2CCNCC2)cc1,inactive: -9.47%
20,Cc1ccc(S(=O)(=O)c2cn(CC(=O)Nc3ccccc3)c3cc4c(cc3c2=O)OCO4)cc1,inactive: 2.78%
21,Cc1ccc(-c2nc(CS(=O)CC(=O)O)c(C)o2)cc1 (centres undefined),inactive: -3.76%
22,Nc1nonc1-c1nc2ccccc2n1CC(=O)Nc1ccc(F)cc1,inactive: -6.6%
23,CC(=O)c1cc(-c2ccccc2)n(CC(=O)Nc2ccc(C)cc2C)c1C,inactive: 0.528%
24,CCc1ccc(Nc2nc3ccccc3c3nnc(C)n23)cc1,inactive: -10.3%
25,Cc1cccc(N2CCN(C(=O)c3ccc4c(c3)CCN4S(=O)(=O)c3ccccc3)CC2)c1C,inactive: -10.7%

row,Structure (SMILES),activation
1,CCOc1ccccc1NC(=O)NC(CC)c1c(-n2cccc2)sc2c1CCN(C)C2 (centres undefined),inactive: -11.4%
2,CCOC(=O)c1cc(OC(=O)c2cc(Cl)ccc2OC)n(-c2ccccc2)n1,inactive: -8.46%
3,CCc1ccc(S(=O)(=O)c2nnn3c2nc(NCCC(C)C)c2cc(Cl)ccc23)cc1,inactive: -15%
4,CCc1ccccc1NC(=O)CSc1nccn1C,inactive: -7.61%
5,CCOc1ccc(NS(=O)(=O)c2ccc3[nH]cc(C(=O)NCCc4ccccc4)c(=O)c3c2)cc1,inactive: 20.4%
6,COc1ccccc1Nc1ncnc2c1nc1n2CCCCC1,inactive: -9.43%
7,Cn1c(SCC(=O)Nc2ccccc2F)nc2c([nH]c3ccccc32)c1=O,inactive: 2.21%
8,COc1ccc2c(c1)c(CC(=O)Nc1cc(C)c(OC)c(C)c1)c(C)n2C(=O)c1ccc(Cl)cc1,inactive: -18.1%
9,CC(=O)c1ccc(OC(=O)c2c(-c3ccccc3Cl)noc2C)cc1,inactive: -8.41%
10,CCCN(CCC)S(=O)(=O)c1ccc(C(=O)N2CCn3c4c(c5cc(C)ccc53)CCCC42)cc1 (centres undefined),inactive: -9.26%
11,Cn1nc(C(=O)Nc2cccc(C(F)(F)F)c2)c2c1-c1ccccc1S(=O)(=O)C2,inactive: -13.1%
12,O=C(COc1ccc(Cl)cc1Cl)Nc1ccc(C(=O)OC2CCCCC2)cc1,inactive: -2.55%
13,COc1ccc(NC(=O)c2ccco2)cc1NC(=O)c1ccc(OC(C)C)cc1,inactive: -6.33%
14,Cc1cc(C)cc(OC(C)C(=O)Nc2nc3c(s2)CCCC3)c1 (centres undefined),inactive: -28.3%
15,COc1ccc(CCNC(=O)Cn2nc(-c3ccc(Cl)cc3)ccc2=O)cc1OC,inactive: 7.43%
16,CCOc1ccc(Nc2ncnc3onc(-c4ccc(Cl)cc4)c23)cc1,inactive: -6.03%
17,COc1cn(CC(=O)Nc2cccc(C)c2)c(CN2CCCCC2)cc1=O,inactive: -5.11%
18,CCOC(=O)c1ccc(NC(=O)C2CCCN(c3cnccn3)C2)cc1 (centres undefined),inactive: -8.6%
19,COc1ccc(Oc2ncnc3c2oc2ccccc23)cc1,inactive: -11%
20,CCCC(C(=O)Nc1cc(C)c(Cl)cc1OC)N1Cc2ccccc2C1=O (centres undefined),inactive: -15.8%
21,COc1cc(NC(=O)Cn2cc(S(=O)(=O)N3CCC(C)CC3)c3ccccc3c2=O)cc(OC)c1OC,inactive: -17.8%
22,COc1cccc(/C=C(\C#N)c2nc3ccccc3c(=O)[nH]2)c1OC,inactive: -3.97%
23,CCOC(=O)C1=C(CNCc2ccc(Cl)cc2)NC(=O)NC1c1ccccc1 (centres undefined),inactive: -35.1%
24,CC(=O)N1c2ccccc2CC1C(=O)N1CCN(c2ccccc2F)CC1 (centres undefined),inactive: -8.37%
